Experimental data: PubChem BioAssay AID485344 (National Center for Advancing Translational Sciences (NCATS), 2010)
Out of some 340,000 compounds screened, about 6,900 (2%) were called active. Cut-off read from the data, not from the text of the source: active = inhibition above about 30%; inactive = below that, where a call was filed. The list shows a part of the results, in another mix than the full data. Entries without a call were filed so in the source.

Biological target: D(2) dopamine receptor (Homo sapiens) (UniProt P14416)
Experiment: HTS Assay for Allosteric Antagonists of the Human D2 Dopamine Receptor: Primary Screen for Antagonists; note: 0% is about no effect
Conditions: HEK293 TREx D2 cells, calcium flux, dopamine EC80; at 10 µM; stronger effect = higher value
Outline: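 HEK293 T-REx D2 cells, tet-induced, calcium dye no-wash. Cpd pintool add, 180 s kinetic, then EC80 DA, 180 s kinetic. Ca flux read.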

UniProt P14416, sequence (P14416 whole entry, looked up): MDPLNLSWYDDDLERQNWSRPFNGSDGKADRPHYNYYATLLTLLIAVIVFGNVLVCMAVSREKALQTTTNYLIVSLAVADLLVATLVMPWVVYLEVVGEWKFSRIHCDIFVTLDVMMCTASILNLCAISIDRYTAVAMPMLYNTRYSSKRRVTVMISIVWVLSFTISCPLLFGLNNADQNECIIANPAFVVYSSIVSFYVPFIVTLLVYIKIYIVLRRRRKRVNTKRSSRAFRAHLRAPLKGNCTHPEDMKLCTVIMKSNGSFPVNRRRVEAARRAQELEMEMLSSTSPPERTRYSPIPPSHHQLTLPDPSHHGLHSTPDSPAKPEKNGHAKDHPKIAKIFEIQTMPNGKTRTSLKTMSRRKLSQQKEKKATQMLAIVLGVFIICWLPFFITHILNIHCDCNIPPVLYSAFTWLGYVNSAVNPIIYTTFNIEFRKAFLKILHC

Row | Compound | inhibition
1 | O=C(CSc1nc(-c2cccc(F)c2)[nH]c1-c1ccccc1)Nc1ccc2c(c1)OCCO2 | 2.5%
2 | CCc1ccc(NC(=O)CCCc2nnc3n(CC(C)C)c(=O)c4sccc4n23)cc1 | 13.6%
3 | Nn1c(SCCOc2ccccc2)nnc1-c1cccnc1 | active: 32.7%
4 | O=C(Nc1c2c(nn1-c1ccc(Cl)cc1)CS(=O)(=O)C2)c1cccc(F)c1 | 5.09%
5 | Cc1ccc(-c2nc(CS(=O)CC(=O)N3CCN(c4cccc(Cl)c4)CC3)c(C)o2)cc1 (configuration not stated) | 3.11%
6 | CCCOc1cccc(C2c3c(oc4ccccc4c3=O)C(=O)N2c2nncs2)c1 (configuration not stated) | -16.9%
7 | COc1ccc(N2CCN(S(=O)(=O)c3ccc(OC)c(C(=O)N4CCCC4)c3)CC2)cc1 | active: 47.5%
8 | O=C(Nc1cccc(O)c1)c1noc2c1CCc1ccccc1-2 | 9.35%
9 | CC1CCCCC1NC(=O)C1CCN(c2c3c(nc4ncnn24)CCC3)CC1 (configuration not stated) | active: 34.1%
10 | COc1cccc(C(=O)c2cn(CC(=O)NCc3ccccc3Cl)c3nc(C)ccc3c2=O)c1 | 0.69%
11 | Cc1ccc(C)c(Cn2c(CCCNC(=O)C3CCCCC3)nc3ccccc32)c1 | -8.3%
12 | Cc1ccc2cccc(NC(=O)COc3ccccc3Cl)c2n1 | -10.3%
13 | Cc1c(Cl)cccc1NC(=O)Cn1cc(C(=O)c2cccs2)c2ccccc21 | 12.2%
14 | Cc1nc(-c2cccc(NC(=O)Nc3ccccc3C(F)(F)F)c2)no1 | -7.74%
15 | CCc1ccc(-n2c(=O)c3sc4ccccc4c3n(CC(=O)N3CCCC3)c2=O)cc1 | 8.58%
16 | O=C(CSc1nc2ccsc2c(=O)n1Cc1ccccc1Cl)NCc1ccc(F)cc1 | 17.5%
17 | CCc1cccc(NC(=O)CN2Cc3ccccc3C2=O)c1 | -15.8%
18 | COc1ccc(-c2cc(C)no2)cc1S(=O)(=O)NCc1cccs1 | 8.58%
19 | CCOc1ccc(C2CC(=O)Nc3cc4c(cc32)OCO4)cc1OC (configuration not stated) | 18.8%
20 | COc1cc(CNC(=O)C2CCCCN2S(=O)(=O)c2ccc(F)cc2)cc(OC)c1OC (configuration not stated) | -3.5%
21 | CCOC(=O)c1c(S(=O)(=O)N2CCCC(C(=O)Nc3ccccn3)C2)c(C)n(C)c1C (configuration not stated) | 28.2%
22 | COc1ccc(CNC(=O)c2cc(-c3ccc(OC)cc3)nc3n[nH]c(-c4cccc([N+](=O)[O-])c4)c23)cc1 | -14.2%
23 | Cc1ccc(CNC(=O)C2CCN(S(=O)(=O)c3ccc(F)cc3)CC2)cc1 | -14.7%
24 | CC(=O)N1CCc2c(sc3c2c(=O)n(-c2ccc(C)cc2)c(=O)n3Cc2c(F)cccc2Cl)C1 | -6.86%
25 | COc1ccccc1CNC(=O)c1cccn1-c1nnc(N2CCCCC2)s1 | 0.837%

Row | Compound | inhibition
26 | CN(C)S(=O)(=O)c1ccc(Cl)c(NC(=O)CN2CCC(Cc3ccccc3)CC2)c1 | active: 42.3%
27 | COc1cccc(CN(C(=O)c2oc3ccccc3c2C)C2CCS(=O)(=O)C2)c1 (configuration not stated) | 7.11%
28 | CCc1cccc(C)c1NC(=O)CCS(=O)(=O)c1ccc2c(c1)oc(=O)n2C | 3.27%
29 | O=C(Cc1ccc(Cl)cc1)Nc1ccc2oc(-c3ccccc3F)nc2c1 | 9.31%
30 | Cc1cc2n(n1)CCC(=O)N2Cc1ccc(C(=O)Nc2cccc(C(F)(F)F)c2)cc1 | 5.44%
31 | COC(=O)c1cc2sc(C)cc2n1Cc1nc(-c2ccc(C)cc2)oc1C | -4.59%
32 | CCC1ON(C(C)C)C2c3nc4ccccc4n3CC12 (configuration not stated) | active: 32.2%
33 | CC(C)c1ccc(Nc2c(-c3ccc(N(C)C)cc3)nc3cnccn23)cc1 | 10.5%
34 | Cc1ccc(Nc2c(-c3ccc(C)cc3)nc3c(C)cccn23)cc1 | -5.09%
35 | COc1ccc(-c2noc(CSc3nc4ccccc4[nH]3)n2)cc1 | 13.6%
36 | O=C(NCCc1ccc(Cl)cc1)C(=O)NCC(c1cccs1)S(=O)(=O)c1ccccc1 (configuration not stated) | 16%
37 | CCCCc1nn2c(=O)cc(COC(=O)c3ccccc3C)nc2s1 | -10.9%
38 | COc1ccc(NC(=O)C(C(C)C)N2Cc3ccccc3C2=O)cc1 (configuration not stated) | 5.99%
39 | CCc1ccccc1NC(=O)NC(CC)Cn1nnc2ccccc2c1=O (configuration not stated) | -22.7%
40 | CCOc1ccccc1NS(=O)(=O)c1cc(-c2cnc(C3CC3)o2)ccc1C | 18.1%
41 | Cc1ccc(-n2nc3c(=O)n(C(C)C(=O)NCc4ccccc4C)nc(C)c3c2C)cc1 (configuration not stated) | 0.602%
42 | O=C(c1cc2ccc3cccnc3c2[nH]1)N1CCN(c2cccc(Cl)c2)CC1 | -16%
43 | COc1cc(OC)cc(C(=O)NCCc2csc(-c3ccc(C(F)(F)F)cc3)n2)c1 | -5.79%
44 | COc1ccccc1NC(=O)c1sc2nc(C)c(C(=O)Nc3ccc(C)cc3C)c(-c3ccccc3Cl)c2c1N | 0.682%
45 | Cc1ccc(NC(=O)CCN2C(=O)c3ccccc3Sc3ncccc32)c(Cl)c1 | -3.24%
46 | Cc1ccc2oc(=O)c3cc(C(=O)NCCc4ccc(Cl)cc4)sc3c2c1 | -4.2%
47 | CCS(=O)(=O)N1CCc2cc(C(=O)NCc3ccccc3Cl)ccc21 | -12.3%
48 | O=c1oc2ccccc2cc1-c1nc(-c2cccs2)no1 | 6.06%
49 | CCC(=O)Nc1sc2c(c1C(=O)Nc1ccc(Br)cc1)CCCCC2 | 6.56%
50 | Cc1cccc(N2CCN(C(=O)c3cc4ccc5cccnc5c4[nH]3)CC2C)c1 (configuration not stated) | 11.4%

Row | Compound | inhibition
51 | CN1CCN(C(CNC(=O)c2c(F)cccc2F)c2ccc3c(c2)OCO3)CC1 (configuration not stated) | -19%
52 | O=c1c2ccccc2n(Cc2cccc(Cl)c2)c(=O)n1Cc1ccccc1 | 10.8%
53 | CCN(C(=O)Cn1ncc2c(=O)oc3ccccc3c21)c1ccccc1F | -7%
54 | COCCc1nn2c(=O)cc(COC(=O)c3ccc(Br)cc3)nc2s1 | -6.87%
55 | CCC(C)NC(=O)c1sc2nc3n(c(=O)c2c1C)CCC3 (configuration not stated) | 11.6%
56 | CCCCCCn1ccc(=N)cc1 | active: 35.8%
57 | COCCCNc1nc(NCc2ccc(C)cc2)c2cnn(C)c2n1 | -8.61%
58 | COc1cccc2c1cc1c(=O)n(CC(=O)N3CCC(C)CC3)nc(C)n12 | -9.7%
59 | CCCCNC(=O)CN1CCN(c2ncc(NC(=O)c3ccc(Cl)cc3)cc2C(=O)O)CC1 | 6.86%
60 | COc1cc(NC(=O)C2CCN(c3nc4ccccc4nc3C(F)(F)F)CC2)cc(OC)c1 | -11.7%
61 | CCc1ccccc1N(CC)C(=O)C1CCN(c2ncnc3c2nc2n3CCCCC2)CC1 | 3.21%
62 | CCCOc1cccc(C2c3c(oc4ccc(F)cc4c3=O)C(=O)N2c2nc(C)c(C(C)=O)s2)c1 (configuration not stated) | 9.53%
63 | COc1ccc(CN2CCC(c3nc4ccc(Cl)cc4[nH]3)CC2)cc1 | active: 59.7%
64 | COc1cccc(C(=O)NCC(=O)N2CCC3(CC2)NCCc2[nH]cnc23)c1OC | active: 30.4%
65 | Cc1cc(C)c(NC(=O)CSc2nc3c([nH]c4ccccc43)c(=O)n2C)c(C)c1 | 6.55%
66 | COc1ccc(CCNC(=O)c2ccc(Cn3c(=O)[nH]c4cc(OC)c(OC)cc4c3=O)cc2)cc1OC | -15.7%
67 | COc1cccc(C(=O)N(Cc2ccc(C)o2)C2CCS(=O)(=O)C2)c1 (configuration not stated) | -1.93%
68 | COc1ccc(-c2cc(C(F)(F)F)nc(NCc3ccc(F)cc3)n2)cc1 | -24.9%
69 | CCOc1ccc(NC(=O)CSc2oc(-c3ccc(C)cc3)nc2S(=O)(=O)c2ccc(C)cc2)cc1 | 20.9%
70 | O=C(COCc1cc(-c2cccs2)on1)Nc1cc(C(F)(F)F)ccc1Cl | 4.57%
71 | CC1CCN(S(=O)(=O)c2ccc3nc(N4CCN(c5ccc(F)cc5)CC4)ccc3c2)CC1 | 0.278%
72 | COc1ccc(CCNc2ncnc3onc(C)c23)c(OC)c1 | 6.47%
73 | COCCCn1c(=N)c(C(=O)NC2CCCCC2)cc2c(=O)n3cc(C)ccc3nc21 | -7.58%
74 | OC(COc1cccc2ccccc12)CN1CCN(c2ccccc2Cl)CC1 (configuration not stated) | active: 39.1%
75 | CC1CCCCN1CCCNC(=O)Cn1ncc2c3ccccc3n(C)c2c1=O (configuration not stated) | -7.68%

Row | Compound | inhibition
76 | Cc1ccc(S(=O)(=O)c2cc3cc(C(=O)Nc4ccc(C)cc4C)ccc3oc2=O)cc1 | 17.5%
77 | CC(C)c1ccc(NC(=O)Cc2cn(C)c3ccccc23)cc1 | active: 48.8%
78 | CCSc1ccc2c(c1)N(CCCN1CCN(C)CC1)c1ccccc1S2 | active: 82.6%
79 | CC(=O)N1CCc2cc(Br)cc(S(=O)(=O)NCc3ccc(Cl)cc3)c21 | active: 68.1%
80 | CCc1ccccc1NC(=O)c1ccc(F)c(S(=O)(=O)N2CCN(c3cccc(Cl)c3)CC2)c1 | 18.6%
81 | CC(=O)c1cc(-c2ccc(F)cc2)n(CCC(=O)Nc2nc3ccc(C)cc3s2)c1C | -11.1%
82 | COc1ccc(-c2nc3cc(NC(=O)c4ccc(C)cc4)ccc3o2)cc1Cl | 3.25%
83 | O=C(OCc1cc(=O)n2nc(C3CC3)sc2n1)c1ccc(NC(=O)c2ccccc2F)cc1 | 1.27%
84 | Cc1ccc(C(=O)N2CCC(C)CC2)cc1NC(=O)c1nsc2ccccc12 | -14%
85 | CCOc1ccc(Br)cc1C1NC(=O)c2c(sc3c2CCN(C)C3)N1 (configuration not stated) | 20.5%
86 | CCN(c1ccccc1)S(=O)(=O)c1ccc(NC(=O)c2nc(SC(C)C)ncc2Cl)cc1 | 25.6%
87 | COc1cc(C(CC(=O)Nc2ncccc2C)N2Cc3ccccc3C2=O)cc(OC)c1OC (configuration not stated) | -19.7%
88 | Cc1cccc(CNC(=O)CN2C(=O)CSc3c2c(C)nn3-c2ccccc2)c1 | 5.9%
89 | Nc1c(-c2nc(-c3ccc4c(c3)OCO4)cs2)c2ccccn2c1C(=O)c1ccc(Cl)cc1 | 6.86%
90 | CCOc1ccc(NC(=O)Cc2c[nH]c3ccccc23)cc1 | 4.46%
91 | O=C(O)c1ccc(NC(=O)c2ccc(Br)c(S(=O)(=O)N3CCCC3)c2)cc1 | 2.36%
92 | Cc1ccc(SCc2nc(-c3ccc(C(=O)NCC(C)c4ccccc4)cc3)oc2C)cc1 (configuration not stated) | -7.17%
93 | Cc1cccc(CNC(=O)CN2C(=O)CCn3nc(-c4cn(C)c5ccccc45)cc32)c1 | 2.24%
94 | CCCC12CN3CC(C)(CN(C1)C3c1ccc(OCc3ccccc3)cc1)C2=O (configuration not stated) | 15.4%
95 | COc1ccccc1NC(=O)c1sc2nc3n(c(=O)c2c1C)N=C(c1cccc(Br)c1)CS3 | -10.6%
96 | COc1ccc2c(c1)CCc1c(C(=O)Nc3ccc(OC)cc3OC)noc1-2 | -20.6%
97 | COc1ccc(OC)c(/C=C(\C#N)c2nc(-c3ccc(F)cc3)cs2)c1 | -24.6%
